# The whole screen tested about 390,000 compounds, of which about 930 (0.24%) were called active. Inconclusive means that the source gave no clear call. Such entries were picked first, then a sample of the others. Calls follow the shape of the dose curve; as a rule, active = well fitted activation curve with a large enough effect; inconclusive = small, poorly fitted or top-dose-only effect; inactive = no such curve, though single readings can be large or run the other way. Where the call is inconclusive, the potency comes from a doubtful curve fit.
# Test: qHTS for Suppressors of FUS Proteinopathy: Primary screen using FUS-linked yeast assay; also: nearly all actives have a fitted effect of over 55% in size;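 as to growth rescue (activation): plate controls were DMSO vehicle for no effect and reference control for full effect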
# Conditions: S. cerevisiae FUS-expressing, OD600, 24 h; Potency: growth rescue; growth rescue (activation): at 76.6 µM (top of the series)
# Description: Several widespread neurodegenerative diseases, including Alzheimer disease, Huntington disease, Frontotemporal Lobar Degeneration (FTLD) and Amyotrophic Lateral Sclerosis (ALS), share a common pathological feature, namely accumulation of specific protein aggregates in diseased tissue. These diseases which is associated with protein misfolding (proteinopathies) have become increasingly problematic as the population ages and life expectancies are extended. Most proteinopathies are currently incurable, a situation confounded by the fact that the basis of neurodegeneration is generally poorly understood. There exists urgent and significant need to find therapeutics that can inhibit the toxicity associated with protein aggregation. A novel approach to understand the underlying mechanisms of neurodegenerative diseases has recently emerged in which the disease conditions are modeled in the yeast (Saccharomyces cerevisiae), a tractable eukaryotic organism with conserved protein quality control mechanisms. Yeast offers quick and reliable genetic manipulations and can be easily tailored to high-throughput screening (HTS).
# For this project, a yeast model of the FUS proteinopathies (a spectrum of neurodegenerative diseases that include ALS and a subtype of FTLD) was generated and employed. The cytoplasmic accumulation of the DNA/RNA-binding protein FUS (also known as TLS) is causative to both familial and sporadic forms of ALS and FTLD. This yeast model recapitulates neuronal pathology by showing severe cytotoxicity associated with cytoplasmic accumulation of FUS aggregates and a specific interaction between FUS and TDP-43, another ALS-associated protein. […] Specifically, the cellular accumulation of misfolded FUS that disrupts RNA homeostasis in both yeast and higher eukaryotes. This model was validated to be suitable for quantitative HTS (qHTS) use for finding genetic or chemical factors that restore growth. […] Identified compounds that inhibits FUS-yeast toxicity is flagged, re-acquired, and validated for further investigation and optimization.
# NIH Chemical Genomics Center [NCGC]
# NIH Molecular Libraries Probe Production Centers Network [MLPCN]
# Assay Submitter (PI): Frank Shewmaker PhD, Uniformed Services University of the Health Sciences
# Compound CP55940 was used as the positive control. Column 1 was treated with CP55940 titration from 92uM (final concentration, 1:2 dilution), while Column 2 was treated with top dose 92uM. Columns 3 and 4 were treated with DMSO only as negative control to assess background and noise signal.
# Four hundred fifty microliter of cultured yeast (in 20mL rich medium) provided by Dr. Shewmaker lab was incubated at 30C at 99% humidity for 3hr. The culture was then spun down at 4000rpm for 5min and the cell pellet was resuspended in 2mL of Sdmin Media + ALU(330) + 2.5% Raffinose. One hundred microliter of the suspension was added to 900uL of water and OD of the solution was obtained. Twenty mL of responding medium (provided by Shewmaker lab) + 2.5% raffinose was added to ensure cell density of 0.1; the solution was incubated overnight. Working cell solution (FUS-yeast in Sdmi + Sdmi + 1X ALU + 2% galactose media) was prepared (final OD at 0.005) and 3uL was dispensed in a 1536-well Aurora high based clear bottom assay plates. Controls and library compounds (at various final concentrations from 40uM to 0.32uM) were added using a 1536-well pin array using the Kalypsys pin-tool. The plates were then incubated for 24hrs in a cell-culture incubator (30C; 99% humidity). Absorbance at 600nm was then read using the PerkinElmer ViewLux plate reader.
# Potency is read from the fitted curve at half-maximal effect; tags tell the direction and shape of the fitted curve.
Structure (SMILES),growth rescue (activation),Potency
COc1cc(OC)c(NC(=O)N2CCC(CN3CCCC3)CC2)cc1Cl,inactive: 10.2%,
O=C(c1cnc(N2CCN(c3ccccn3)CC2)c2ccccc12)N1CCN(c2cccc(Cl)c2)CC1,,"inconclusive: 22.4 µM [activator, partial curve, poor fit]"
Cc1ccc(-c2cc(C(=O)NN=C/C=C/c3ccco3)[nH]n2)cc1C,,"inconclusive: 25.1 µM [activator, partial curve]"
CCOC(=O)c1cc(-c2ccccc2)sc1NC(=S)Nc1cc(C)ccn1,inactive: -6.04%,
COC(=O)/C(C#N)=C/c1c(N2CCCCCC2)nc2c(C)cccn2c1=O,,"inconclusive: 28.2 µM [activator, single point]"
CCc1ccc(/C=C2\SC(=S)N(CCCC(=O)N(CCO)c3ccccc3)C2=O)cc1,,active: 22.4 µM
CC(C)(C)OC(=O)N1CCCC(C(=O)CC#N)C1 (centres undefined),,"inconclusive: 56.2 µM [activator, partial curve, poor fit]"
N#Cc1c(NC(=O)CSc2nnc(-c3ccncc3)n2CC2CCCO2)sc2c1CCCC2 (centres undefined),,"inconclusive: 22.4 µM [activator, partial curve, poor fit]"
COc1cc(Nc2nc(SCC(=O)c3ccc(Cl)c(Cl)c3)nc3ccccc23)cc(OC)c1,inactive: 37.2%,
Cc1c(C(=O)N2CCOCC2)sc2ncnc(N3CCc4ccccc4C3)c12,inactive: 12.4%,
COc1ccc(N2CCN(C(=O)CSc3nc4ccccc4nc3Cc3ccc(Cl)cc3)CC2)cc1,,active: 31.6 µM
COc1nc(-c2ccccc2)c2cc(C)ccc2n1,inactive: 2.4%,
CCn1c2c(c(=O)n3ncc(C(=O)Nc4ccc(C(=O)OC)cc4)c13)CN(Cc1ccc(OC)cc1)CC2,,"inconclusive: 28.2 µM [activator, single point]"
O=C(NCc1ccco1)c1ccc2c(=O)n(Cc3ccco3)c(SCC(=O)N3CCCC3)nc2c1,,"inconclusive: 20 µM [activator, partial curve, poor fit]"
CCn1c(CN2CCCCC2)nc2cc(NC(=O)COc3ccccc3C(C)(C)C)ccc21,inactive: 12.3%,
CC1N(C)c2cc(NC(=O)c3cccs3)c(P(=O)(Nc3ccc([N+](=O)[O-])cc3)N3CCOCC3)cc2C1(C)C (centres undefined),,"inconclusive: 25.1 µM [activator, single point]"
O=C(Nc1ccc(Br)cc1)c1cccc(NC(=O)C2C3CC4OC(=O)C2C4C3)c1 (centres undefined),,"inconclusive: 28.2 µM [activator, single point]"
O=C(CNC(c1ccccc1)c1ccccc1)NCc1ccccc1Cl,,"inconclusive: 7.94 µM [activator, partial curve]"
Cc1ccc(-n2c(SCC(=O)Nc3ccccc3-c3ccccc3)nnc2-c2ccccn2)cc1,,"inconclusive: 28.2 µM [activator, partial curve, poor fit]"
CCCCCCCCCCCCCCCC[n+]1cccc2ccccc21,,"inconclusive: 50.1 µM [activator, single point]"
C[C@@H]1CCCCO[C@H](CN(C)S(=O)(=O)c2ccccc2)[C@@H](C)CN([C@H](C)CO)C(=O)c2cc(NC(=O)Cc3ccccc3)ccc2O1,,"inconclusive: 25.1 µM [activator, single point]"
CCCOc1ccc(C(=O)NNC(=S)NC(C)=O)cc1,inactive: -4.54%,

Structure (SMILES),growth rescue (activation),Potency
CN1C2=N[C@@H](c3cccc(C(F)(F)F)c3)CC(=O)N2/C(=C\c2ccccc2)[C@H]1c1ccccc1,,"inconclusive: 15.8 µM [activator, partial curve]"
Cc1cc(C)cc(NC(=O)CSc2nnc(Cc3cccn3C)n2-c2ccc(F)cc2)c1,,"inconclusive: 25.1 µM [activator, single point]"
COc1ccc(C2c3ccc(O)cc3Oc3ncn4nc(-c5cccnc5)nc4c32)cc1OC (centres undefined),,"inconclusive: 25.1 µM [activator, partial curve, poor fit]"
O=C(C1CCCCC1)N1C[C@@H](O)[C@H](n2cc(-c3ccc(F)cc3)nn2)C[C@@H]1c1ccc(Cl)cc1,,"inconclusive: 35.5 µM [activator, single point]"
CCOC(=O)N1CCN(S(=O)(=O)c2ccc(C(=O)N(CCCN(C)C)c3nc4ccc(CC)cc4s3)cc2)CC1,,"inconclusive: 22.4 µM [activator, single point]"
C=CCn1c(SCC(=O)Nc2ccc3c(c2)OCCO3)nnc1-c1ccccn1,,"inconclusive: 11.2 µM [activator, partial curve, poor fit]"
Cc1cccc(C(=O)N2CCN(c3ccc(C(F)(F)F)cn3)CC2)c1C,,"inconclusive: 31.6 µM [activator, partial curve, poor fit]"
CCOC(=O)N1C(=O)C[C@](Sc2ccc(OC)cc2)(C(=O)N2CCOCC2)[C@H]1c1ccc(OC)cc1,inactive: 27.2%,
CCCCCCCCN1C(=O)[C@H](CC(=O)NCCC(C)C)C[C@@]2(C(=O)OCC)CCCC=C12,,"inconclusive: 7.08 µM [activator, full curve]"
Cc1ccc2oc(C(=O)Nc3nc(-c4ccc(F)cc4)ns3)c(C)c2c1,inactive: 7.77%,
CN(C(=O)c1ccc(NC(=O)Cc2ccc(NC(=O)C3CCCN(C(=O)C4CCCC4)C3)cc2)cc1)C1CCCC1 (centres undefined),,"inconclusive: 22.4 µM [activator, single point]"
Cc1cc(=O)oc2cc(OCc3ccc(C(=O)N4CCN(c5ccccc5)CC4)cc3)ccc12,,"inconclusive: 35.5 µM [activator, partial curve, poor fit]"
COc1ccc2cc3cc(C(=O)N4CCCCC4C)oc3nc2c1 (centres undefined),,"inconclusive: 25.1 µM [activator, partial curve, poor fit]"
O=C1C(Cc2ccccc2)Nc2ncnc(N3CCc4ccccc4C3)c2N1Cc1ccccc1 (centres undefined),,"inconclusive: 28.2 µM [activator, single point]"
Cc1cc(NS(=O)(=O)c2ccc(NC(=O)CSc3nnc(-c4ccncc4)n3-c3ccccc3)cc2)nc(C)n1,inactive: 13.6%,
CC(C)(C)[C@@H]1C=C(C(=O)Nc2ccccc2)O[C@H](OCc2ccc(CO)cc2)C1,,"inconclusive: 25.1 µM [activator, single point]"
COc1ccc(C(C(=O)Nc2ccc(C(C)C)cc2)N(C)C(=O)Cc2cccs2)cc1 (centres undefined),,"inconclusive: 50.1 µM [activator, single point]"
CC(=O)CC[C@H]1CC[C@]2(CCCN(Cc3nccn3C)C2)O1,inactive: -14.5%,
CS(=O)(=O)N1N=C(c2ccc3nccnc3c2)CC1c1ccccc1 (centres undefined),inactive: 31%,
Cc1c(F)cccc1NS(=O)(=O)c1cccs1,inactive: 11%,
Cc1nc2c(c(SCC(=O)Nc3ccccc3C(F)(F)F)n1)CCC2,inactive: 14.1%,
COc1ccc(/C=N/NC(=O)c2ccn[nH]2)cc1COc1ccc(Cl)cc1,inactive: 24.3%,

Structure (SMILES),growth rescue (activation),Potency
CC(C)(C)NC(=O)C[C@H]1C[C@H](C(=O)N2CCOCC2)[C@@]2(CCC3CCCC3)c3[nH]c4cc(-c5ccco5)ccc4c3CCN2C1=O,,"inconclusive: 28.2 µM [activator, single point]"
CC(C)(C)NC(=O)C(c1ccc(C#N)cc1)n1c(=O)c(-c2ccco2)nc2ccccc21 (centres undefined),,"inconclusive: 4.47 µM [activator, full curve, poor fit]"
O=C(c1ccc2c(c1)CCN2S(=O)(=O)c1ccc(Cl)cc1)N1CCN(c2ccccc2F)CC1,,"inconclusive: 11.2 µM [activator, partial curve, poor fit]"
Cc1ccc(-n2cc3c(-c4cccc(Br)c4)nnc(C)c3n2)cc1,,"inconclusive: 50.1 µM [activator, single point]"
COc1ccc(Nc2ncc(C(=O)N3CCN(c4ccc(OC)cc4)CC3)c3ccccc23)cc1,,"inconclusive: 31.6 µM [activator, single point]"
NNC(=O)c1cc2c(s1)CCCCCC2,inactive: 21.1%,
NS(=O)(=O)c1ccc(OCCCN2CCC(C(O)(c3ccccc3)c3ccccc3)CC2)cc1,inactive: -14.8%,
COc1cccc(OCCCn2c(-c3ccc(Cl)cc3)nc3ccccc3c2=O)c1,inactive: -13.7%,
CCc1cccc(NC(=O)c2cc(-c3ccccc3)n[nH]2)c1,inactive: -10.8%,
COc1ccc(NC(=O)CNC(=O)c2ccco2)cc1S(=O)(=O)Nc1cc(C)ccc1Br,,"inconclusive: 50.1 µM [activator, single point]"
CC1CCCCN1C(=O)c1ccc2c(c1)N(Cc1ccc(Cl)cc1)C(=O)c1ccccc1S2=O (centres undefined),,"inconclusive: 39.8 µM [activator, partial curve, poor fit]"
COc1cc(OC)cc(C(=O)NCCc2csc(-c3cccc(C)c3)n2)c1,,"inconclusive: 31.6 µM [activator, single point]"
COc1ccc(NC(=O)c2c(NCc3cccs3)sc3c2CCCCC3)cc1,inactive: 31.7%,
Cc1cc(NC(=O)Cn2c(=O)c3c(ncn3CCC(C)C)n(Cc3ccccc3)c2=O)no1,,"inconclusive: 50.1 µM [activator, single point]"
COc1ccc(CCNc2ncnc3c2nnn3C)cc1OC,inactive: -12.5%,
C=CCOc1ccc2c(c1)CCC1C2CCC2(C)C(O)C(O)CC12 (centres undefined),,"inconclusive: 50.1 µM [activator, single point]"
Cn1cnc2c1c(=O)n(Cc1cccc(Br)c1)c(=O)n2C,inactive: 8.52%,
Cc1cc(C)n(CCO)c(=O)n1,,"inconclusive: 1.12 µM [activator, full curve, poor fit]"
CCc1c(O)nc(SCC(=O)Nc2ccc(OC)cc2)n(C2CCCCC2)c1=O,,"inconclusive: 35.5 µM [activator, partial curve, poor fit]"
CC(C)CC1Nc2ncnc(N3CCN(c4ccccn4)CC3)c2N(Cc2ccc(Br)cc2)C1=O (centres undefined),,"inconclusive: 50.1 µM [activator, single point]"
